Measured values published in the supplement of paper PMC8728848.
The list shows a part of the results.

Columns and labels:
Assay in all cases: glycan array binding signal (z-score within array); higher = stronger binding
Conditions in all cases: glycan notation: IUPAC condensed, linker removed
[1] = target: Neu5Ac(a2-6)Gal(b1-4)GlcNAc(b1-3)Gal(b1-4)GlcNAc(b1-3)GalNAc
Summary of the method: (§1)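 Glycan array binding is given as a within-array Z-score, which can be read as non-binding when negative. The arrays, 3228 of them, came from the Consortium for Functional Glycomics database and were retained only where the protein sequence was available. Z-scores were averaged across arrays of the same protein sequence at different concentrations or buffers and across linkers.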

[2] = target: Neu5Ac(a2-6)Gal(b1-4)GlcNAc(b1-3)Gal(b1-4)GlcNAc(b1-3)[Neu5Ac(a2-6)Gal(b1-4)GlcNAc(b1-3)Gal(b1-4)GlcNAc(b1-6)]GalNAc
Summary of the method: as §1

[3] = target: Neu5Ac(a2-6)Gal(b1-4)GlcNAc(b1-3)Gal(b1-4)GlcNAc(b1-6)[Gal(b1-3)]GalNAc
Summary of the method: as §1

[4] = target: Neu5Ac(a2-6)Gal(b1-4)GlcNAc(b1-3)Gal(b1-4)[Fuc(a1-3)]GlcNAc(b1-3)Gal(b1-4)[Fuc(a1-3)]GlcNAc
Summary of the method: as §1

[5] = target: Neu5Ac(a2-6)Gal(b1-4)GlcNAc(b1-3)GalNAc
Summary of the method: as §1

[6] = target: Neu5Ac(a2-6)Gal(b1-4)GlcNAc(b1-3)[Neu5Ac(a2-6)Gal(b1-4)GlcNAc(b1-6)]GalNAc
Summary of the method: as §1

[7] = target: Neu5Ac(a2-6)Gal(b1-4)GlcNAc(b1-6)GalNAc
Summary of the method: as §1

[8] = target: Neu5Ac(a2-6)Gal(b1-4)GlcNAc(b1-6)[Gal(b1-3)GlcNAc(b1-3)]Gal(b1-4)Glc
Summary of the method: as §1

[9] = target: Neu5Ac(a2-6)Gal(b1-4)GlcNAc(b1-6)[Gal(b1-3)]GalNAc
Summary of the method: as §1

[10] = target: Neu5Ac(a2-6)Gal(b1-4)GlcNAc6S
Summary of the method: as §1

Neu5Ac(a2-6)GalNAc = target: Neu5Ac(a2-6)GalNAc
Summary of the method: as §1

[11] = target: Neu5Ac(a2-6)GalNAc(b1-4)GlcNAc
Summary of the method: as §1

[12] = target: Neu5Ac(a2-6)GalNAc(b1-4)GlcNAc6S
Summary of the method: as §1

[13] = target: Neu5Ac(a2-6)GlcNAc(b1-4)GlcNAc
Summary of the method: as §1

[14] = target: Neu5Ac(a2-6)GlcNAc(b1-4)GlcNAc(b1-4)GlcNAc
Summary of the method: as §1

Neu5Ac(a2-8)Neu5Ac = target: Neu5Ac(a2-8)Neu5Ac
Summary of the method: as §1

[15] = target: Neu5Ac(a2-8)Neu5Ac(a2-3)Gal(b1-3)GalNAc(b1-4)[Neu5Ac(a2-3)]Gal(b1-4)Glc
Summary of the method: as §1

[16] = target: Neu5Ac(a2-8)Neu5Ac(a2-3)Gal(b1-3)GalNAc(b1-4)[Neu5Ac(a2-8)Neu5Ac(a2-3)]Gal(b1-4)Glc
Summary of the method: as §1

[17] = target: Neu5Ac(a2-8)Neu5Ac(a2-3)Gal(b1-4)Glc
Summary of the method: as §1

[18] = target: Neu5Ac(a2-8)Neu5Ac(a2-3)Gal(b1-4)GlcNAc
Summary of the method: as §1

[19] = target: Neu5Ac(a2-8)Neu5Ac(a2-3)[Gal(b1-3)GalNAc(b1-4)]Gal(b1-4)Glc
Summary of the method: as §1

[20] = target: Neu5Ac(a2-8)Neu5Ac(a2-3)[GalNAc(b1-4)]Gal(b1-4)Glc
Summary of the method: as §1

[21] = target: Neu5Ac(a2-8)Neu5Ac(a2-8)Neu5Ac
Summary of the method: as §1

[22] = target: Neu5Ac(a2-8)Neu5Ac(a2-8)Neu5Ac(a2-3)Gal(b1-4)Glc
Summary of the method: as §1

[23] = target: Neu5Ac(a2-8)Neu5Ac(a2-8)Neu5Ac(a2-3)[Gal(b1-3)GalNAc(b1-4)]Gal(b1-4)Glc
Summary of the method: as §1

[24] = target: Neu5Ac(a2-8)Neu5Ac(a2-8)Neu5Ac(a2-3)[GalNAc(b1-4)]Gal(b1-4)Glc
Summary of the method: as §1

[25] = target: Neu5Ac(a2-8)Neu5Ac(a2-8)Neu5Ac(a2-8)Neu5Ac(a2-3)[GalNAc(b1-4)]Gal(b1-4)Glc
Summary of the method: as §1

[26] = target: Neu5Ac(a2-8)Neu5Gc(a2-3)Gal(b1-4)GlcNAc
Summary of the method: as §1

[27] = target: Neu5Ac(b2-6)Gal(b1-4)GlcNAc
Summary of the method: as §1

Neu5Ac(b2-6)GalNAc = target: Neu5Ac(b2-6)GalNAc
Summary of the method: as §1

[28] = target: Neu5Ac9Ac(a2-3)Gal(b1-3)GlcNAc
Summary of the method: as §1

[29] = target: Neu5Ac9Ac(a2-3)Gal(b1-4)GlcNAc
Summary of the method: as §1

[30] = target: Neu5Ac9Ac(a2-6)Gal(b1-4)GlcNAc
Summary of the method: as §1

[31] = target: Neu5Gc(a2-3)Gal(b1-3)GlcNAc
Summary of the method: as §1

[32] = target: Neu5Gc(a2-3)Gal(b1-3)[Fuc(a1-4)]GlcNAc
Summary of the method: as §1

Neu5Gc(a2-3)Gal(b1-4)Glc = target: Neu5Gc(a2-3)Gal(b1-4)Glc
Summary of the method: as §1

[33] = target: Neu5Gc(a2-3)Gal(b1-4)GlcNAc
Summary of the method: as §1

[34] = target: Neu5Gc(a2-3)Gal(b1-4)GlcNAc(b1-3)Gal(b1-4)GlcNAc(b1-2)Man(a1-3)[Neu5Gc(a2-3)Gal(b1-4)GlcNAc(b1-3)Gal(b1-4)GlcNAc(b1-2)Man(a1-6)]Man(b1-4)GlcNAc(b1-4)GlcNAc
Summary of the method: as §1

[35] = target: Neu5Gc(a2-3)Gal(b1-4)[Fuc(a1-3)]GlcNAc
Summary of the method: as §1

[36] = target: Neu5Gc(a2-6)Gal(b1-4)GlcNAc
Summary of the method: as §1

Neu5Gc(a2-6)GalNAc = target: Neu5Gc(a2-6)GalNAc
Summary of the method: as §1

[37] = target: Neu5Gc(a2-8)Neu5Ac(a2-3)Gal(b1-4)GlcNAc
Summary of the method: as §1

[38] = target: Neu5Gc(a2-8)Neu5Gc(a2-3)Gal(b1-4)GlcNAc
Summary of the method: as §1

[39] = target: Neu5Gc(a2-8)Neu5Gc(a2-3)Gal(b1-4)GlcNAc(b1-3)Gal(b1-4)GlcNAc
Summary of the method: as §1

[40] = target: Neu5Gc(a2-8)Neu5Gc(a2-6)Gal(b1-4)GlcNAc
Summary of the method: as §1

[41] = target: Neu5Gc(b2-6)Gal(b1-4)GlcNAc
Summary of the method: as §1

B1: SP15308A-bot-339-19-339 (Bacteroides ovatus) (protein)
chain: ACNNEWEDEQYEQYISFKSPIPAGGEGVTDIYVRYKEDGKVTYRLPIVVSGSTTNTLDREVHIAVDKDTLETLNIERFSIHRPGLWYTALEEDKYDFPKTVHISAGSSVEQLNIDFNLQGIDMLEKWVLPLTIVDDPSYNYKSHPRKNYAKALLRVIPFNNYSGSYTSSAMKVYTYINGKPDTNARTANKRTGYVINDNTVFFYAGLISEDLDKEVREKYKINVHFNEDGTLHMEQGDPTNKMKFELIGTPTYSKTSVMDATRPYLERRYVQIMFEYDFEDFSYGGNGVDVIPIKYKVEGSMTLQRNINTQIPDEDQQIEW
- glycan array binding signal (z-score) [1]: -0.372
- glycan array binding signal (z-score) [2]: -0.295
- glycan array binding signal (z-score) [3]: -0.196
- glycan array binding signal (z-score) [4]: 0.107
- glycan array binding signal (z-score) [5]: -0.619
- glycan array binding signal (z-score) [6]: -0.18
- glycan array binding signal (z-score) [7]: -0.237
- glycan array binding signal (z-score) [8]: -0.565
- glycan array binding signal (z-score) [9]: -0.424
- glycan array binding signal (z-score) [10]: -0.194
- glycan array binding signal (z-score) (Neu5Ac(a2-6)GalNAc): -0.36
- glycan array binding signal (z-score) [11]: -0.736
- glycan array binding signal (z-score) [12]: -0.452
- glycan array binding signal (z-score) [13]: -0.508
- glycan array binding signal (z-score) [14]: -0.453
- glycan array binding signal (z-score) (Neu5Ac(a2-8)Neu5Ac): -0.247
- glycan array binding signal (z-score) [15]: -0.497
- glycan array binding signal (z-score) [16]: 0.03
- glycan array binding signal (z-score) [17]: -0.384
- glycan array binding signal (z-score) [18]: -0.345
- glycan array binding signal (z-score) [19]: -0.083
- glycan array binding signal (z-score) [20]: -0.466
- glycan array binding signal (z-score) [21]: -0.123
- glycan array binding signal (z-score) [22]: -0.509
- glycan array binding signal (z-score) [23]: -0.048
- glycan array binding signal (z-score) [24]: -0.3
- glycan array binding signal (z-score) [25]: -0.366
- glycan array binding signal (z-score) [26]: -0.21
- glycan array binding signal (z-score) [27]: -0.305
- glycan array binding signal (z-score) (Neu5Ac(b2-6)GalNAc): -0.463
- glycan array binding signal (z-score) [28]: -0.51
- glycan array binding signal (z-score) [29]: -0.391
- glycan array binding signal (z-score) [30]: -0.311
- glycan array binding signal (z-score) [31]: -0.106
- glycan array binding signal (z-score) [32]: -0.412
- glycan array binding signal (z-score) (Neu5Gc(a2-3)Gal(b1-4)Glc): -0.1
- glycan array binding signal (z-score) [33]: -0.188
- glycan array binding signal (z-score) [34]: 0.181
- glycan array binding signal (z-score) [35]: 0.629
- glycan array binding signal (z-score) [36]: -0.371
- glycan array binding signal (z-score) (Neu5Gc(a2-6)GalNAc): -0.285
- glycan array binding signal (z-score) [37]: 0.014
- glycan array binding signal (z-score) [38]: -0.427
- glycan array binding signal (z-score) [39]: -0.077
- glycan array binding signal (z-score) [40]: -0.088
- glycan array binding signal (z-score) [41]: 0.645
